In all, about 370,000 compounds went through this assay and about 150 (0.041%) were called active. Inconclusive results, whose numbers are uncertain, are shown with a selection of clear calls. Calls come from the whole dose curve; as a rule, active = well fitted inhibition curve with a large enough effect; inconclusive = small, poorly fitted or top-dose-only effect; inactive = flat fitted curve, though single readings scatter. Potencies of inconclusive entries are left out as doubtful fits.
Molecular target: Beta-lactamase (Escherichia coli (strain K12)) (UniProt P00811)
UniProt P00811, sequence (P00811 whole entry, looked up): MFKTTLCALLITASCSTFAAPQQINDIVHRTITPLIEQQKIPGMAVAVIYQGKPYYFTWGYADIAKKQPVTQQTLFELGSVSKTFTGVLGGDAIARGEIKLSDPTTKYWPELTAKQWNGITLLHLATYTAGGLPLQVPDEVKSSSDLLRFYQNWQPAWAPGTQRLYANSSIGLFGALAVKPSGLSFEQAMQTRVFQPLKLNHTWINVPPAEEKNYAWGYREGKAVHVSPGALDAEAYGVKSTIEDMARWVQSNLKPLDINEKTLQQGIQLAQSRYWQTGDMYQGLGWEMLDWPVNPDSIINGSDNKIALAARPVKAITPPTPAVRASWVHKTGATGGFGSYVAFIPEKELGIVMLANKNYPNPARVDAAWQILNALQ
Experiment: qHTS Inhibitors of AmpC Beta-Lactamase (assay with detergent); note: nearly all actives have a fitted effect of over 25% in size
Conditions: AmpC hydrolysis of nitrocefin, absorbance 480 nm, 0.01% Triton; series mostly up to 114 µM
Method in brief: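 20 mM phosphate pH 7.0 + 0.01% (detergent screen) or 0.0001% Triton X-100; 5.3 nM AmpC reagent; cpd preinc 15 min RT; nitrocefin (800 uM stock) to start; A480 q20 s × 4 min; Activity was normalised to no-enzyme and no-compound control wells.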
Potency is the fitted concentration of half-maximal effect; tags give direction and shape of the fitted curve.

| SMILES | Potency |
| --- | --- |
| CCOC(=O)c1sc(=NC(=O)c2ccc(C)c(C)c2)n(C)c1C | inconclusive [inhibitor, full curve, poor fit] |
| CCCn1c(SCC(=O)NC2CCCC2)nnc1C(C)C | inconclusive [inhibitor, single point] |
| CN(C(=O)c1ccc(Oc2ccc([N+](=O)[O-])cc2)cc1)C1CCCCC1 | inactive |
| COc1cc(OC)cc(N2C(=O)CC(N3CCC(C(=O)N4CCCCC4)CC3)C2=O)c1 (configuration not stated) | inactive |
| Cc1ccccc1/C=N/NC(=O)c1ccc(-n2cnnn2)cc1 | inconclusive [inhibitor, full curve, poor fit] |
| CCOC(=O)c1c(C)[nH]c(C(=O)Nc2ccc(C)c(Cl)c2)c1C | inactive |
| CN1CCN(Cc2ccc(-c3ccc(Cl)cc3)o2)CC1 | inactive |
| O=C(C1=C[C@@H](c2ccc(Br)cc2)C[C@@H](OCCCCO)O1)N1CCOCC1 | inactive |
| COc1ccc(-n2nnnc2SCC(=O)NCCc2ccc(OC)c(OC)c2)cc1 | inconclusive [inhibitor, partial curve, poor fit] |
| C[C@H]1CC[C@H]2C(=O)N3[C@H](c4cccc(N5CCCC5=O)c4)[C@@H](C)CC[C@H]3C(=O)N2[C@@H]1c1cccc(N2CCCC2=O)c1 | inconclusive [inhibitor, partial curve, poor fit] |
| COc1cc(-c2ccno2)ccc1S(=O)(=O)N1CCN(c2ccccc2)CC1 | inactive |
| CNS(=O)(=O)c1cnccc1N1CCN(c2cccc(Cl)c2)CC1 | inactive |
| COc1ccc(N2CCN(S(=O)(=O)c3ccc4c(c3)NC(=O)C(C)S4)CC2)cc1 (configuration not stated) | inconclusive [inhibitor, single point] |
| Cc1csc(CNc2ncnc3ccc(-c4ccc5c(c4)OCO5)cc23)c1 | inconclusive [inhibitor, full curve, poor fit] |
| O=C(COC(=O)c1ccc(S(=O)(=O)C(F)F)cc1)NC(=O)NC1CCCCC1 | inconclusive [inhibitor, full curve, poor fit] |
| CCc1ccccc1N(C(=O)CCC(=O)Nc1cc(C)on1)C(C(=O)NC1CCCC1)c1ccco1 (configuration not stated) | inconclusive [inhibitor, full curve, poor fit] |
| O=C(c1cc(-c2ccncc2)nc2ccccc12)N1CCN(c2ccccc2O)CC1 | inactive |
| Cc1cc(OCC(=O)O)c2ccccc2n1 | inconclusive [inhibitor, single point] |
| Cn1cc(S(=O)(=O)Nc2ccc(F)cc2F)c(=O)n(C)c1=O | inconclusive [inhibitor, full curve, poor fit] |
| CCCOc1ccc(C(=O)NC(=S)NCc2cccnc2)cc1 | inconclusive [inhibitor, partial curve, poor fit] |
| Cn1c(COc2ccc3ccccc3c2)nnc1SCC(N)=O | inconclusive [inhibitor, full curve, poor fit] |

| SMILES | Potency |
| --- | --- |
| c1ccc(-c2cnc(-c3cccnc3)o2)cc1 | inactive |
| O=C(NCCc1c[nH]c2ccccc12)C1CCN(Cc2ccc(Br)cc2)CC1 | inconclusive [inhibitor, partial curve] |
| COc1ccc(NC(=O)CSc2nnc3ccc(-c4ccncc4)nn23)cc1 | inconclusive [inhibitor, full curve, poor fit] |
| O=C(NCc1ccccc1)c1ncn[nH]1 | inactive |
| COc1ccc(-n2c(Cn3nnc4ccccc43)nnc2SCC(=O)O)cc1 | inconclusive [inhibitor, full curve] |
| CCOC(=O)N1CCC(NC(=O)c2cnn3ccccc23)CC1 | inconclusive [inhibitor, full curve, poor fit] |
| NC(=O)c1ncc(C(F)(F)F)cc1Oc1cccc(F)c1 | inconclusive [inhibitor, full curve, poor fit] |
| CCOc1ccccc1C(=O)NCc1ccc2c(c1)CCN2C(=O)c1ccccc1 | inactive |
| CCc1ccc(C2C(C#N)=C(N)SC(N)=C2C#N)s1 | inconclusive [inhibitor, single point] |
| CCCS(=O)(=O)C(=C1Nc2ccccc2N1)S(=O)(=O)CCC | inconclusive [inhibitor, full curve, poor fit] |
| Cc1ccc(-n2c(SCC(=O)Nc3cc(C)on3)nc3c([nH]c4ccccc43)c2=O)cc1 | inconclusive [inhibitor, full curve] |
| O=C(c1cccnc1)N1CCN(C(=O)c2ccco2)CC1 | inconclusive [inhibitor, full curve, poor fit] |
| Nc1nc2n(n1)C(c1ccc(F)cc1)CC(c1ccc(F)cc1)N2 (configuration not stated) | inconclusive [inhibitor, full curve, poor fit] |
| COc1ccc(C(=O)NC(C)c2nnc(SCC(=O)NC3CCCC3)n2C)cc1 (configuration not stated) | inconclusive [inhibitor, single point] |
| CC(=O)c1sc(=S)n(Cc2ccccc2)c1C | inconclusive [inhibitor, partial curve] |
| c1ccc2c(c1)CSc1ccccc1C2C1=NCCN1 (configuration not stated) | inconclusive [inhibitor, full curve, poor fit] |
| O=C(CCN1C(=O)/C(=C/c2cccs2)SC1=S)NC1=NCCS1 | inconclusive [inhibitor, single point] |
| CCO/C=C1\SC(=S)N(c2ccc(Cl)cc2)C1=O | inconclusive [inhibitor, full curve, poor fit] |
| CCOc1ccc(N(CC(=O)Nc2ccc(OC)cc2)S(=O)(=O)c2c(C)noc2C)cc1 | inconclusive [inhibitor, full curve, poor fit] |
| Cc1ccccc1C(=O)N1CCN=C1SCc1ccc([N+](=O)[O-])cc1 | inconclusive [inhibitor, full curve] |
| O=c1c2c([N+](=O)[O-])cc([N+](=O)[O-])cc2nc2ccccn12 | inconclusive [inhibitor, full curve, poor fit] |

Source: PubChem BioAssay AID485294 (National Center for Advancing Translational Sciences (NCATS), 2010)
